Hit rate of the full screen: of about 350,000 compounds, about 31,000 (8.9%) were called active. This list was built around the results that the source calls inconclusive (neither active nor inactive); the mix of calls is not that of the screen. Calls follow the shape of the dose curve; as a rule, active = well fitted inhibition curve with a large enough effect; inconclusive = small, poorly fitted or top-dose-only effect; inactive = no such curve, though single readings can be large or run the other way. A potency beside an inconclusive call is a rough fit, not a confirmed value.
molecular target: Histone-lysine N-methyltransferase EHMT2 (Homo sapiens) (UniProt Q96KQ7); experiment: qHTS Assay for Inhibitors of Histone Lysine Methyltransferase G9a; conditions: G9a H3K9 monomethylation, AlphaScreen, 2 h; activity, negative = inhibition: at 59 µM (top of the series) unless noted; also: nearly all actives have a fitted effect of over 75% in size
Sequence of UniProt Q96KQ7 (Q96KQ7 whole entry, looked up): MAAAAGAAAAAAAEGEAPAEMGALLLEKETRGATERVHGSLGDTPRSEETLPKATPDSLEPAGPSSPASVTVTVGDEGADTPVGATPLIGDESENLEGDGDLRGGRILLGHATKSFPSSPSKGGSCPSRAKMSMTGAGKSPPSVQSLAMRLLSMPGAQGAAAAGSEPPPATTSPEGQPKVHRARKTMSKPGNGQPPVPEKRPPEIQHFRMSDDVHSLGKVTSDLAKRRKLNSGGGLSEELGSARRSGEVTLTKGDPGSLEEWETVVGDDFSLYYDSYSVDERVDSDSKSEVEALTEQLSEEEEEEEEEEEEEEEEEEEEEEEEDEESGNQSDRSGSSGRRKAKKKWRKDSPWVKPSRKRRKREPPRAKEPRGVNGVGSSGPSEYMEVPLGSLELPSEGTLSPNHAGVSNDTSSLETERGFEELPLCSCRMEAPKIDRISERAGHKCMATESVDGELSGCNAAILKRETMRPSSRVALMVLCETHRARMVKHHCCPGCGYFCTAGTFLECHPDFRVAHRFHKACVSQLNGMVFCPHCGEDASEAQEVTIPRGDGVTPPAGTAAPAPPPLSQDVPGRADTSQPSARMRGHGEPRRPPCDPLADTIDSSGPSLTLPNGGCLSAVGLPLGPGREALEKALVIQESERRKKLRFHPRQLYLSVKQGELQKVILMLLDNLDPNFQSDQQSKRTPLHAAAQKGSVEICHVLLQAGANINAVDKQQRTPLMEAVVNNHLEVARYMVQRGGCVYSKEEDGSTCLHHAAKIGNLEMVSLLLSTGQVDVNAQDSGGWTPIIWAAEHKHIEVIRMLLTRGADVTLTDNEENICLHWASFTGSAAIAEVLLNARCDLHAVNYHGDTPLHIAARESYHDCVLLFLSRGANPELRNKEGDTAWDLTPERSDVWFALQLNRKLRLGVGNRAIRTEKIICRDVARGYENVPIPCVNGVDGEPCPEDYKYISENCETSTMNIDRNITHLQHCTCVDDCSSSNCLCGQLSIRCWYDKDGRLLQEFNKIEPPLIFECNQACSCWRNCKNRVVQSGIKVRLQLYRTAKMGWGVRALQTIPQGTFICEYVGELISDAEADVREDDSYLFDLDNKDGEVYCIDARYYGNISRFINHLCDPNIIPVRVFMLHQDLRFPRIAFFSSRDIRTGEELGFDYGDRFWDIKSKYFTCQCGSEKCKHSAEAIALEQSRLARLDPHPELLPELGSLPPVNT
Outline: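 AlphaScreen read-out: biotin-H3K9 peptide (500 nM) methylation by 20 nM enzyme with 20 uM SAM, 2 h at room temperature after 15 min compound preincubation; anti-monomethyl H3K9 antibody plus donor/acceptor beads, 10 min dark.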
% is scaled to controls: 0 for no effect and ±100 for the full control effect; potency is read from the fitted curve at half-maximal effect; tags tell the direction and shape of the fitted curve.

Row | Structure (SMILES) | Potency | activity, negative = inhibition
1 | C=CCN1c2ccccc2[C@]23C[C@@H](C(=O)OC)N(C(=O)CC(C)C)C2=NC(C(=O)OC)=C(C(=O)OC)[C@H]13 | inconclusive: 7.94 µM [inhibitor, single point] | –
2 | C(=N\Nc1nc2ccccc2[nH]1)/c1ccc2c(c1)OCCO2 | inconclusive: 50.1 µM [inhibitor, partial curve] | –
3 | CCOc1ccc2cc(S(=O)(=O)n3ccnc3C)ccc2c1 | inconclusive: 3.16 µM [inhibitor, partial curve, poor fit] | –
4 | CCCCN(C)CCCNC(=O)C1CCN(S(=O)(=O)CCC)CC1 | – | inactive: -16.8%
5 | COc1ccc(Cl)cc1NC(=O)CSc1cn(CC(=O)N2CCCCC2)c2ccccc12 | inconclusive: 25.1 µM [inhibitor, partial curve, poor fit] | –
6 | C#Cc1ccc(CN2CCCC(C(=O)Nc3ccccc3Oc3cccnc3)C2)cc1 (stereo not drawn) | – | inactive: -13.6% [at 102 µM]
7 | CCN(C(=O)COC(=O)c1nc(Cl)ccc1Cl)C1CCS(=O)(=O)C1 (stereo not drawn) | active: 1.41 µM | –
8 | Cc1oc(-c2cccc(Cl)c2)nc1CN1CCC(C(=O)NC(C)c2ccccc2)CC1 (stereo not drawn) | – | inactive: -2.92%
9 | CCn1c(SCC(=O)c2ccc3ccccc3c2)nnc1-c1ccco1 | inconclusive: 35.5 µM [inhibitor, single point] | –
10 | Cc1oc2c(C)c(O)ccc2c(=O)c1-c1nncn1-c1ccccc1 | inconclusive: 50.1 µM [inhibitor, partial curve] | –
11 | CC(C)(C)S(=O)(=O)/C(C#N)=N/Nc1ccc(S(N)(=O)=O)cc1 | – | inactive: -23.8% [at 102 µM]
12 | COc1ccc(C(=O)N2CCC3(CCCN(c4ccc(-c5ccccc5)cc4)C3)CC2)cc1 | – | inactive: -2.5% [at 12.7 µM]
13 | CCOC(=O)C1CCCN(C/C=C/c2ccccc2[N+](=O)[O-])C1 (stereo not drawn) | inconclusive: 3.55 µM [inhibitor, single point] | –
14 | COc1cccc(C2/C(=C(/O)c3cnn(-c4ccccc4)c3C)C(=O)C(=O)N2CCN(C)C)c1 (stereo not drawn) | inconclusive: 39.8 µM [inhibitor, single point] | –
15 | CCCCCOC(=O)CSc1nc2c(c(=O)[nH]c(=O)n2C)n1Cc1ccc(Cl)cc1 | active: 39.8 µM | –
16 | CCCOc1ccc(C2c3c(oc4ccccc4c3=O)C(=O)N2CCN(CC)CC)cc1OC (stereo not drawn) | active: 50.1 µM | –
17 | Cc1ccc(-c2csc3nc(C)n(-n4c(C)ccc4C)c(=O)c23)o1 | – | inconclusive: -114% [inhibitor]
18 | CC1CC(C)(C)NC(=S)N1CCCC(=O)Nc1ccc2c(c1)OCCO2 (stereo not drawn) | inconclusive: 56.2 µM [inhibitor, single point] | –
19 | COc1ccc(-[n+]2c(C)cc(/C=C3\Sc4ccccc4N3C)cc2C)cc1 | active: 50.1 µM | –
20 | COc1ccc(C(=O)Nc2ccccc2C(=O)NCc2ccco2)cc1 | – | inactive: 20.2% [at 102 µM]
21 | CCOc1ccc(S(=O)(=O)NCCC(=O)N2CC=C(c3ccccc3)CC2)cc1 | – | inactive: 7.84% [at 12.7 µM]
22 | CCN(CC)c1ccc(/C=N/NC(=O)c2ccc([N+](=O)[O-])cc2)cc1 | inconclusive: 35.5 µM [inhibitor, partial curve, poor fit] | –
23 | O=c1c2ccc(Cl)cc2nc(-c2cccc(C(F)(F)F)c2)n1O | inconclusive: 22.4 µM [inhibitor, partial curve, poor fit] | –

Row | Structure (SMILES) | Potency | activity, negative = inhibition
24 | COc1cccc(NC(=S)NNC(=O)Cn2nc([N+](=O)[O-])cc2C)c1 | inconclusive: 28.2 µM [inhibitor, single point] | –
25 | C/C(=C(/CCO)SS/C(CCO)=C(\C)N(C=O)Cc1cnc(C)nc1N)N(C=O)Cc1cnc(C)nc1N | – | inactive: -27.4% [at 12.7 µM]
26 | CC(=O)N=c1sc2ccccc2n1C | – | inactive: 1.82% [at 102 µM]
27 | CCOC(=O)c1sc(NC(=O)CSc2nc3c(cc2C#N)CCCCCC3)c(C#N)c1C | inconclusive: 89.1 µM [inhibitor, single point] | –
28 | Cc1ccc(NC(=O)CSc2ncc(-c3ccccc3)[nH]2)cc1 | inconclusive: 10 µM [inhibitor, partial curve] | –
29 | C=CCN(CC=C)C(=O)C[n+]1ccc(C(N)=O)cc1 | – | inconclusive: -58.6% [inhibitor] [at 12.7 µM]
30 | COc1ccc(C(c2sc3nc(C)nn3c2O)N2CCN(Cc3ccccc3)CC2)cc1OC (stereo not drawn) | inconclusive: 39.8 µM [inhibitor, partial curve, poor fit] | –
31 | Cc1ccc(S(=O)(=O)CCSc2n[nH]c(=O)n2-c2ccccc2)cc1 | – | inactive: -26.7% [at 102 µM]
32 | Cc1cc(C)c2c(N)c(C(=O)N3CCCCCC3)sc2n1 | inconclusive: 2 µM [inhibitor, partial curve, poor fit] | –
33 | N#CCc1nc(C(c2ccccc2)c2ccccc2)no1 | inconclusive: 89.1 µM [inhibitor, single point] | –
34 | CCOc1ccc(S(=O)(=O)N2CCN(c3ccccn3)CC2)cc1 | inconclusive: 79.4 µM [inhibitor, partial curve] | –
35 | CS(=O)(=O)N1CCC2(CCCN(c3cccc(-c4ccccc4)c3)C2)CC1 | – | inactive: -3.58% [at 12.7 µM]
36 | CCCCNC(=O)c1ccc2c(=O)n(CCCOCC)c(=S)[nH]c2c1 | – | inactive: -39.7% [at 102 µM]
37 | O=C(Nc1cc2c(cc1C(=O)c1ccccc1Br)OCCO2)c1ccccc1 | inconclusive: 0.708 µM [inhibitor, full curve, poor fit] | –
38 | CCOC(=O)Nc1ccc2c(C)cc(=O)oc2c1 | inconclusive: 89.1 µM [inhibitor, partial curve, poor fit] | –
39 | Cc1ccc(OCC(=O)Nc2ccccc2C(=O)OCc2cc(=O)n3ccsc3n2)cc1 | inconclusive: 28.2 µM [inhibitor, single point] | –
40 | COc1ccc(C(=O)Nc2ncccc2C)cc1S(=O)(=O)N1CCCc2ccccc21 | inconclusive: 89.1 µM [inhibitor, single point] | –
41 | CC(=O)c1ccc(NC(=O)COc2ccccc2-c2nc(-c3ccc(C)cc3)no2)cc1 | inconclusive: 3.55 µM [inhibitor, partial curve, poor fit] | –
42 | CC(=O)/C=C/c1ccc(C)o1 | inconclusive: 31.6 µM [inhibitor, single point] | –
43 | Cc1cccc(C)c1NC(=O)CSc1nnc(C)c(=O)[nH]1 | – | inactive: 7.55% [at 102 µM]
44 | O=C(Nc1cccc(Cl)c1N1CCCC1)c1cccc(-c2cc3ccccc3oc2=O)c1 | active: 35.5 µM | –
45 | NC(=S)c1cc2ccc(O)cc2oc1=O | – | inconclusive: -90.3% [inhibitor]
46 | O=C(CCc1ccccc1)N/N=C/c1cccc([N+](=O)[O-])c1 | inconclusive: 89.1 µM [inhibitor, partial curve, poor fit] | –

Row | Structure (SMILES) | Potency | activity, negative = inhibition
47 | Cc1ccc2sc(-c3ccc(N)cc3)nc2c1 | inconclusive: 39.8 µM [inhibitor, single point] | –
48 | Cc1ccc(C)c(S(=O)(=O)NCCOc2nc(NC(C)C)nc(NC(C)C)n2)c1 | – | inactive: -14.8% [at 102 µM]
49 | CCNC(=O)NCc1cccc(Cl)c1 | – | inactive: -5.51% [at 12.7 µM]
50 | COc1cccc(C(=O)NCC(c2ccco2)N2CCOCC2)c1 (stereo not drawn) | – | inactive: 6.78% [at 102 µM]
51 | O=C(NC(=S)Nc1ccc(CN2CCOCC2)cc1)c1ccco1 | inconclusive: 79.4 µM [inhibitor, single point] | –
52 | O=C(NCc1ccco1)c1cc2nc(-c3cccs3)cc(C(F)(F)F)n2n1 | inconclusive: 50.1 µM [inhibitor, partial curve] | –
53 | CC(C)Sc1nc2[nH]ncc2c(=O)[nH]1 | active: 35.5 µM | –
54 | O=C(CNC(=S)NC(=O)c1ccco1)c1ccccc1 | – | inconclusive: -63.8% [inhibitor]
55 | CCOC(=O)C1=C(CN2CCOCC2)NC(=O)NC1c1cc(C)ccc1C (stereo not drawn) | – | inconclusive: -102% [inhibitor]
56 | CCc1cc(C(=O)Nc2c(C)nn(Cc3ccccc3Cl)c2C)no1 | – | inactive: 5.72%
57 | COCCCn1c(=S)[nH]c2c(sc3ccccc32)c1=O | inconclusive: 1.12 µM [inhibitor, full curve, poor fit] | –
58 | Cn1nc(C(=O)OCC(=O)N(Cc2ccccc2)C(C)(C)C)c2ccccc2c1=O | inconclusive: 89.1 µM [inhibitor, single point] | –
59 | Cc1noc(C)c1C(=O)NC(C)c1ccc2c(c1)OCO2 (stereo not drawn) | inconclusive: 28.2 µM [inhibitor, partial curve, poor fit] | –
60 | Cn1cc(/C=N/NC(=O)c2cc3cc(Br)ccc3o2)c2ccccc21 | active: 50.1 µM | –
61 | Cc1cc2cc(CNC(=O)c3ccc(Br)o3)ccc2[nH]1 | – | inconclusive: -93.3% [inhibitor]
62 | O=C(Nc1ccccc1F)c1ccc(Cn2nc(N3CCN(c4ccccc4)CC3)ccc2=O)o1 | inconclusive: 20 µM [inhibitor, partial curve, poor fit] | –
63 | C=C(C)COc1ccc(-c2ncncc2Oc2ccc(OC)cc2)c(O)c1 | inconclusive: 4.47 µM [inhibitor, single point] | –
64 | CN(C(=O)COC(=O)c1cc(S(=O)(=O)N(C)C)ccc1Cl)C1CCS(=O)(=O)C1 (stereo not drawn) | inconclusive: 2.24 µM [inhibitor, full curve, poor fit] | –
65 | COc1cc(OC)c(NC(=O)N2CCc3c([nH]c4ccccc34)C2c2ccccc2F)cc1Cl (stereo not drawn) | inconclusive: 4.47 µM [inhibitor, full curve, poor fit] | –
66 | COc1ccccc1C(=O)NCCC(=O)NC(C)c1ccc(-n2ccnc2)cc1 (stereo not drawn) | active: 20 µM | –
67 | O=S(=O)(c1ccccc1)[C@@]1(c2ccc(Br)cc2)C[C@@H]2ON=C(c3ccccc3)[C@@H]2C1 | – | inactive: 16.8% [at 2.33 µM]
68 | COc1ccccc1Oc1coc2cc(OCC(N)=O)ccc2c1=O | inconclusive: 0.631 µM [inhibitor, partial curve, poor fit] | –
